Measurements as given in patent US20250066451A1 (SWEDISH ORPHAN BIOVITRUM AB PUBL, published 2025).

Molecular target: T1, human IL-1R-I (human, UniProt P14778 18-332, limits assumed)
T1 construct: bought recombinant protein; also called hIL-1R-I; hIL-1RI
T1 sequence (looked up): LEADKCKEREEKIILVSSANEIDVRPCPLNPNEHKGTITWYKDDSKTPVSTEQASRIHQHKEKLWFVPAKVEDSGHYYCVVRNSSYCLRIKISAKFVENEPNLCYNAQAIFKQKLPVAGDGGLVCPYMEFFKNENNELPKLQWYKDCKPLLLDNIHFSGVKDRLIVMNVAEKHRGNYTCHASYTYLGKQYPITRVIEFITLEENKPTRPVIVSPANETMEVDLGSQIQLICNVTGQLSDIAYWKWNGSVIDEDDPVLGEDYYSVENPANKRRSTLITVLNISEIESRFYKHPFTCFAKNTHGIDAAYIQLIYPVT
Assay: SPR screening; Z-ABD captured on anti-ABD, 100 nM hIL-1R-I injected

Binder	Kd [nM]
Z18968 (Z-ABD) (designed binder) AQHDEALEVDAKYAKELEEVQLEIFRLPNLTRRQYTAFIIKLLDDPSQSSELLSEAKKLNDSQAPKVDYVLAEAKVLANRELDKYGVSDYYKNLINNAKTVEGVKALIDEILAALPYVPG	2.4
Z18971 (Z-ABD) (designed binder) AQHDEALEVDAKYAKEIESVQLEIFGLPNLTRRQYTAFIRKLLDDPSQSSELLSEAKKLNDSQAPKVDYVLAEAKVLANRELDKYGVSDYYKNLINNAKTVEGVKALIDEILAALPYVPG	5.5
Z18982 (Z-ABD) (designed binder) AQHDEALEVDAKYAKEIEEVQLEIFSLPNLTRKQYTAFIRKLLDDPSQSSELLSEAKKLNDSQAPKVDYVLAEAKVLANRELDKYGVSDYYKNLINNAKTVEGVKALIDEILAALPYVPG	5.2
Z18989 (Z-ABD) (designed binder) AQHDEALEVDAKYAKEIEDVQLEIFALPNLTRKQYTAFIRKLLDDPSQSSELLSEAKKLNDSQAPKVDYVLAEAKVLANRELDKYGVSDYYKNLINNAKTVEGVKALIDEILAALPYVPG	4.5
Z19012 (Z-ABD) (designed binder) AQHDEALEVDAKYAKEVEEVQLEIFALPNLTRKQYTAFIRKLLDDPSQSSELLSEAKKLNDSQAPKVDYVLAEAKVLANRELDKYGVSDYYKNLINNAKTVEGVKALIDEILAALPYVPG	4.5
Z19031 (Z-ABD) (designed binder) AQHDEALEVDAKYAKEVETIQLEIFALPNLTRRQYTAFIRKLLDDPSQSSELLSEAKKLNDSQAPKVDYVLAEAKVLANRELDKYGVSDYYKNLINNAKTVEGVKALIDEILAALPYVPG	3.1
Z19043 (Z-ABD) (designed binder) AQHDEALEVDAKYAKEIEEIQMEIYYLPNLTRRQYTAFIRKLLDDPSQSSELLSEAKKLNDSQAPKVDYVLAEAKVLANRELDKYGVSDYYKNLINNAKTVEGVKALIDEILAALPYVPG	3.4
Z19053 (Z-ABD) (designed binder) AQHDEALEVDAKYAKEIEDVQLEIFKLPNLTRRQYTAFIRKLLDDPSQSSELLSEAKKLNDSQAPKVDYVLAEAKVLANRELDKYGVSDYYKNLINNAKTVEGVKALIDEILAALPYVPG	8.7
Z19054 (Z-ABD) (designed binder) AQHDEALEVDAKYAKEIEWVQLEIFHLPNLTRKQYTAFIRKLLDDPSQSSELLSEAKKLNDSQAPKVDYVLAEAKVLANRELDKYGVSDYYKNLINNAKTVEGVKALIDEILAALPYVPG	7
Z19056 (Z-ABD) (designed binder) AQHDEALEVDAKYAKEVEEIQLEIYALPNLTRKQYTAFIRKLLDDPSQSSELLSEAKKLNDSQAPKVDYVLAEAKVLANRELDKYGVSDYYKNLINNAKTVEGVKALIDEILAALPYVPG	6.9
Z19057 (Z-ABD) (designed binder) AQHDEALEVDAKYAKEIEQVQLEIFGLPNLTRKQYTAFIRKLLDDPSQSSELLSEAKKLNDSQAPKVDYVLAEAKVLANRELDKYGVSDYYKNLINNAKTVEGVKALIDEILAALPYVPG	4.2
Z19059 (Z-ABD) (designed binder) AQHDEALEVDAKYAKEVEEAQMEIYGLPNLTRKQYTAFIRKLLDDPSQSSELLSEAKKLNDSQAPKVDYVLAEAKVLANRELDKYGVSDYYKNLINNAKTVEGVKALIDEILAALPYVPG	9.2
Z19060 (Z-ABD) (designed binder) AQHDEALEVDAKYAKEVEWAQMEIFDLPNLTRKQYTAFIRKLLDDPSQSSELLSEAKKLNDSQAPKVDYVLAEAKVLANRELDKYGVSDYYKNLINNAKTVEGVKALIDEILAALPYVPG	10
Z19072 (Z-ABD) (designed binder) AQHDEALEVDAKYAKEIEEIQLEIFSLPNLTRKQYTAFIRKLLDDPSQSSELLSEAKKLNDSQAPKVDYVLAEAKVLANRELDKYGVSDYYKNLINNAKTVEGVKALIDEILAALPYVPG	5.2
Z19075 (Z-ABD) (designed binder) AQHDEALEVDAKYAKEVEIIQYEIFGLPNLTRKQYTAFIRKLLDDPSQSSELLSEAKKLNDSQAPKVDYVLAEAKVLANRELDKYGVSDYYKNLINNAKTVEGVKALIDEILAALPYVPG	4.8
Z19078 (Z-ABD) (designed binder) AQHDEALEVDAKYAKEIEAAQMEIFGLPNLTRKQYTAFIRKLLDDPSQSSELLSEAKKLNDSQAPKVDYVLAEAKVLANRELDKYGVSDYYKNLINNAKTVEGVKALIDEILAALPYVPG	9.5
Z19079 (Z-ABD) (designed binder) AQHDEALEVDAKYAKEVEQAQMEIFKLPNLTRKQYTAFIRKLLDDPSQSSELLSEAKKLNDSQAPKVDYVLAEAKVLANRELDKYGVSDYYKNLINNAKTVEGVKALIDEILAALPYVPG	14
Z19085 (Z-ABD) (designed binder) AQHDEALEVDAKYAKEVEEIQYEIFGLPNLTRKQYTAFIRKLLDDPSQSSELLSEAKKLNDSQAPKVDYVLAEAKVLANRELDKYGVSDYYKNLINNAKTVEGVKALIDEILAALPYVPG	4.9
Z19090 (Z-ABD) (designed binder) AQHDEALEVDAKYAKEIEEVQMEIFHLPNLTRRQYTAFIRKLLDDPSQSSELLSEAKKLNDSQAPKVDYVLAEAKVLANRELDKYGVSDYYKNLINNAKTVEGVKALIDEILAALPYVPG	3
Z19094 (Z-ABD) (designed binder) AQHDEALEVDAKYAKETEAAQMEIYKLPNLTRKQYTAFIRKLLDDPSQSSELLSEAKKLNDSQAPKVDYVLAEAKVLANRELDKYGVSDYYKNLINNAKTVEGVKALIDEILAALPYVPG	18

Second part, the binder after the results:

Kd [nM]	Binder
3.8	Z19099 (Z-ABD) (designed binder) AQHDEALEVDAKYAKEVEEIQLEIFRLPNLTRRQYTAFIRKLLDDPSQSSELLSEAKKLNDSQAPKVDYVLAEAKVLANRELDKYGVSDYYKNLINNAKTVEGVKALIDEILAALPYVPG
6.7	Z19107 (Z-ABD) (designed binder) AQHDEALEVDAKYAKETEEVQYEIFALPNLTRKQYTAFIRKLLDDPSQSSELLSEAKKLNDSQAPKVDYVLAEAKVLANRELDKYGVSDYYKNLINNAKTVEGVKALIDEILAALPYVPG
6.1	Z19115 (Z-ABD) (designed binder) AQHDEALEVDAKYAKETEEIQLEIFSLPNLTRKQYTAFIRKLLDDPSQSSELLSEAKKLNDSQAPKVDYVLAEAKVLANRELDKYGVSDYYKNLINNAKTVEGVKALIDEILAALPYVPG
4.2	Z19117 (Z-ABD) (designed binder) AQHDEALEVDAKYAKEIEAIQLEIFALPNLTRKQYTAFIRKLLDDPSQSSELLSEAKKLNDSQAPKVDYVLAEAKVLANRELDKYGVSDYYKNLINNAKTVEGVKALIDEILAALPYVPG
8.4	Z19118 (Z-ABD) (designed binder) AQHDEALEVDAKYAKEIEHVQYEIFALPNLTRKQYTAFIRKLLDDPSQSSELLSEAKKLNDSQAPKVDYVLAEAKVLANRELDKYGVSDYYKNLINNAKTVEGVKALIDEILAALPYVPG
11	Z19123 (Z-ABD) (designed binder) AQHDEALEVDAKYAKEIEKAQMEIFALPNLTRRQYTAFIRKLLDDPSQSSELLSEAKKLNDSQAPKVDYVLAEAKVLANRELDKYGVSDYYKNLINNAKTVEGVKALIDEILAALPYVPG
9.8	Z19127 (Z-ABD) (designed binder) AQHDEALEVDAKYAKEVVSAYYEIYELPNLTRKQYTAFIRKLLDDPSQSSELLSEAKKLNDSQAPKVDYVLAEAKVLANRELDKYGVSDYYKNLINNAKTVEGVKALIDEILAALPYVPG
16	Z19135 (Z-ABD) (designed binder) AQHDEALEVDAKYAKEVEAAQMEIFKLPNLTRKQYTAFIRKLLDDPSQSSELLSEAKKLNDSQAPKVDYVLAEAKVLANRELDKYGVSDYYKNLINNAKTVEGVKALIDEILAALPYVPG
17	Z19141 (Z-ABD) (designed binder) AQHDEALEVDAKYAKEVEEIQHEIYDLPNLTRKQYTAFIRKLLDDPSQSSELLSEAKKLNDSQAPKVDYVLAEAKVLANRELDKYGVSDYYKNLINNAKTVEGVKALIDEILAALPYVPG
1.4	Z19143 (Z-ABD) (designed binder) AQHDEALEVDAKYAKEVEEIQLEIFHLPNLTRRQYTAFIIKLLDDPSQSSELLSEAKKLNDSQAPKVDYVLAEAKVLANRELDKYGVSDYYKNLINNAKTVEGVKALIDEILAALPYVPG
3.1	Z19144 (Z-ABD) (designed binder) AQHDEALEVDAKYAKEIEEVQMEIFALPNLTRKQYTAFIRKLFDDPSQSSELLSEAKKLNDSQAPKVDYVLAEAKVLANRELDKYGVSDYYKNLINNAKTVEGVKALIDEILAALPYVPG
2.9	Z19146 (Z-ABD) (designed binder) AQHDEALEVDAKYAKETEAVQMEIFALPNLTRKQYTAFIRKLLDDPSQSSELLSEAKKLNDSQAPKVDYVLAEAKVLANRELDKYGVSDYYKNLINNAKTVEGVKALIDEILAALPYVPG
2.4	Z19147 (Z-ABD) (designed binder) AQHDEALEVDAKYAKELEEIQMEIFYLPNLTRRQYTAFIRKLLDDPSQSSELLSEAKKLNDSQAPKVDYVLAEAKVLANRELDKYGVSDYYKNLINNAKTVEGVKALIDEILAALPYVPG
